In all, about 52,000 compounds went through this assay and about 1,700 (3.3%) were called active. No stated cut-off is given here; in the data, active means survival mostly below about 52% (no sharp cut-off); inactive means mostly above about 56%. The list shows a part of the results.
System: Wild type
Assay: growth inhibition of S. aureus wild type versus tarO mutant, primary screen, teichoic acid synthesis inhibitors, RN4220, OD600 (AID 463173)
Details: S. aureus RN4220 wild type/DeltatarO growth, OD600, 18 h, stronger effect = lower value, screened at 18.75 µg/mL (by protocol)

Which survival does the source give for `COc1cccc(-c2cc(C(=O)Nc3cnn(Cc4ccc(Cl)cc4Cl)c3)no2)c1` here?
The survival was inactive: 112%.

`COc1cccc(NC(=O)c2oc3ccccc3c2NC(=O)c2ccccc2C)c1` was tested. Which survival did it give?
The survival was inactive: 63%.

For `O=C(CC1N=C2c3ccccc3N=C(SCc3cccc(F)c3)N2C1=O)NCc1cccs1` (configuration not stated), which survival is on record?
The survival was inactive: 77%.

Which survival does the source give for `CCOc1ccc(CNC(=O)c2ccc(CSc3nc4ccncc4n3Cc3ccc(F)cc3)cc2)cc1` here?
Its survival is inactive: 75%.

`Cc1nn(-c2ccccc2)c2nc(C3CC3)cc(C(=O)Nc3cccc(F)c3)c12` was tested. Which survival did it give?
Its survival is inactive: 74%.

How did the survival turn out when `COC(=O)c1ccccc1NC(=O)CSc1n[nH]c(CC(C)C)n1` was run?
The survival was inactive: 74%.

`CCCCN(CCCC)CCCNC(=O)c1ccc2nc(N3CCCCC3)sc2c1` was tested. Which survival did it give?
The survival was inactive: 81%.

With `Cc1ccc(CNC(=O)CCNS(=O)(=O)c2ccc3c(c2)CCCC(=O)N3)cc1` as the molecule, how does the survival read?
Its survival is inactive: 64%.

`COc1ccc(OC)c(Nc2nc3ccccc3nc2-n2nc(C)cc2C)c1` was tested. Which survival did it give?
Its survival is active: 10%.

How did the survival turn out when `CCN(CC)S(=O)(=O)c1ccc(Cl)c(OC)c1` was run?
Its survival is inactive: 114%.

How did the survival turn out when `COc1ccc(-c2nnn3c2nc(NCCc2ccc(OC)c(OC)c2)c2ccccc23)cc1` was run?
Its survival is inactive: 97%.

`Cc1nn2c(=O)cc(COc3ccc(/C=C(\C#N)C(=O)Nc4ccccc4C)cc3)nc2s1` was tested. Which survival did it give?
The survival was inactive: 80%.

Which survival does the source give for `COc1ccc2c(c1)c1c(c(=O)n(-c3cc(Cl)ccc3C)c(=O)n1CC(=O)N1CCCC1)n2C` here?
The survival was inactive: 89%.

Which survival does the source give for `Cc1ccc(Sc2c(C)nn(C(C)(C)C)c2OC(=O)CC(C)C)cc1` here?
Its survival is active: -8%.

`Cc1c(C(=O)OC2CCC(C)CC2)[nH]c2c1C(=O)CC(c1ccc(F)cc1)C2` (configuration not stated) was tested. Which survival did it give?
Its survival is inactive: 96%.

Which survival does the source give for `CCOC(=O)c1cccc(NC(=O)CCc2c(C)nn(-c3ccc(N4CCCCC4)nn3)c2C)c1` here?
The survival was inactive: 95%.

Which survival does the source give for `Cc1ccccc1NC(=O)c1c(NC(=O)c2ccccc2F)sc2c1CCC(C)C2` (configuration not stated) here?
Its survival is inactive: 82%.

With `COc1ccccc1NC(=O)c1ncn(-c2ccccc2)n1` as the molecule, how does the survival read?
Its survival is inactive: 112%.

With `CCCCN1C(=O)c2[nH]nc(-c3ccccc3O)c2C1c1ccc(OCc2ccccc2)c(OC)c1` (configuration not stated) as the molecule, how does the survival read?
Its survival is inactive: 64%.

How did the survival turn out when `COc1ccc(Cn2ccc3nc(C)c(C(=O)N4CCN(c5ccc(F)cc5)CC4)cc3c2=O)cc1` was run?
The survival was inactive: 78%.

With `C(=N\c1nc2ccccc2n1Cc1ccccc1)/c1ccc2c(c1)OCO2` as the molecule, how does the survival read?
Its survival is inactive: 105%.

`Cc1ccc2nc(CSc3nnc(NC(=O)C(C)C)s3)cc(=O)n2c1` was tested. Which survival did it give?
Its survival is active: -3%.

`CCOc1ccc(-c2cc3c(=O)n(Cc4nc(-c5ccc(OCC)c(OC)c5)oc4C)ccn3n2)cc1Cl` was tested. Which survival did it give?
Its survival is inactive: 146%.

`CCCCn1cc2c(c1-c1ccc(Br)cc1)c(=O)n(C)c(=O)n2C` was tested. Which survival did it give?
Its survival is inactive: 71%.

With `Cc1cccc2c(=O)cc(CSc3ccccc3NC(=O)c3cccc(Cl)c3)[nH]c12` as the molecule, how does the survival read?
Its survival is inactive: 82%.

With `CSc1ccc(C2c3c(-c4ccccc4O)n[nH]c3C(=O)N2Cc2ccncc2)cc1` (configuration not stated) as the molecule, how does the survival read?
The survival was inactive: 92%.

How did the survival turn out when `Cc1cccc(C(=O)NCCc2nc3ccccc3n2CCC(C)C)c1` was run?
Its survival is inactive: 116%.

Which survival does the source give for `COc1ccc(NCc2cc3ccc(OC)cc3n(CC(=O)Nc3ccc(C)c(C)c3)c2=O)cc1` here?
The survival was inactive: 66%.

`O=C(CN1C(=O)c2ccccc2S1(=O)=O)NC1CCCC1` was tested. Which survival did it give?
The survival was inactive: 108%.

With `Cc1cccc(OCC(=O)Nc2c(C(=O)Nc3ccc(F)cc3)oc3ccccc23)c1` as the molecule, how does the survival read?
Its survival is inactive: 84%.

Which survival does the source give for `Cc1cccc(N2C(=O)CSC23C(=O)N(C)c2ccccc23)c1` (configuration not stated) here?
The survival was inactive: 71%.

How did the survival turn out when `CCOc1ccc(OCC)c(NC(=O)c2cnn(-c3ccc(F)cc3)c2-n2cccc2)c1` was run?
Its survival is inactive: 66%.

`CCc1ccc(-n2nc(C)c3c(C)cc(=O)n(CC(=O)Nc4cc(Cl)ccc4OC)c32)cc1` was tested. Which survival did it give?
Its survival is inactive: 64%.

For `COc1cc(NC(=O)NCCc2c(C)nn(C)c2C)cc(OC)c1OC`, which survival is on record?
Its survival is inactive: 81%.

How did the survival turn out when `CCCN1CCN(c2nnc(-n3cccc3C(=O)Nc3ccccc3C(F)(F)F)s2)CC1` was run?
The survival was inactive: 148%.

`C/C(=N\NC(=O)C1CC1(C)c1ccccc1)c1ccco1` (configuration not stated) was tested. Which survival did it give?
The survival was inactive: 108%.

How did the survival turn out when `O=c1c2sc3ccccc3c2n(Cc2cccc(Cl)c2)c(=O)n1Cc1ccccc1` was run?
The survival was inactive: 82%.

How did the survival turn out when `COc1ccc(S(=O)(=O)Nc2cccc(-c3ccc(N4CCCCCC4)nn3)c2)cc1OC` was run?
The survival was inactive: 55%.

`CC(C)(C)OC(=O)N1CCC(c2c(C(=O)N3CCN(c4cccc(Cl)c4)CC3)cnn2-c2cccc(Cl)c2)CC1` was tested. Which survival did it give?
Its survival is inactive: 146%.

Which survival does the source give for `CC(=O)Nc1ccc(S(=O)(=O)NCCc2csc3nc(-c4ccc(Cl)cc4)nn23)cc1` here?
The survival was inactive: 67%.

How did the survival turn out when `COc1ccc(C2NCCS2)cc1` (configuration not stated) was run?
The survival was inactive: 108%.

Which survival does the source give for `CC(=O)Nc1cc2c(cc1C(=O)c1ccccc1)OCCO2` here?
The survival was inactive: 117%.

`Cc1ccc(C)n1NC(=O)c1ccc(O)cc1` was tested. Which survival did it give?
Its survival is inactive: 99%.

With `CCc1ccc(NC(=O)C2CCCN(S(=O)(=O)c3ccc4[nH]c(=O)ccc4c3)C2)cc1` (configuration not stated) as the molecule, how does the survival read?
Its survival is inactive: 101%.

Which survival does the source give for `COc1cccc(C(c2sc3nc(-c4ccco4)nn3c2O)N2CCC(C)CC2)c1` (configuration not stated) here?
Its survival is inactive: 77%.

How did the survival turn out when `O=C(CSc1ccnc(=O)[nH]1)NCc1ccc(F)cc1` was run?
Its survival is inactive: 125%.

For `CCOC(=O)C1CCN(C(=O)Cn2nc(C)n3c(cc4c(OC)cccc43)c2=O)CC1`, which survival is on record?
The survival was inactive: 86%.

For `CCC1CN(C(=O)NCc2ccc(F)cc2)c2cc(C)ccc2O1` (configuration not stated), which survival is on record?
The survival was inactive: 95%.

How did the survival turn out when `Cc1ccc(/C=C/C(=O)NCCCn2ccnc2)cc1` was run?
Its survival is inactive: 102%.

For `CN1C(=O)c2ccccc2Sc2ccc(NC(=O)Cc3ccc(Cl)cc3)cc21`, which survival is on record?
Its survival is inactive: 131%.

For `CCOC(=O)C1CCCN(c2c3c(nc4cc(-c5ccc(C)cc5)nn24)CCC3)C1` (configuration not stated), which survival is on record?
Its survival is inactive: 105%.

Which survival does the source give for `Cc1cccc(N(C)S(=O)(=O)c2nnc(NC(=O)C(C)Oc3ccccc3)s2)c1` (configuration not stated) here?
The survival was inactive: 57%.

How did the survival turn out when `COC(=O)c1sccc1S(=O)(=O)N1CCN(c2cccc(C)c2)C(C)C1` (configuration not stated) was run?
Its survival is inactive: 63%.

`COc1ccc(OC)c(CCNC(=O)c2ccc3c(c2)N(Cc2ccccc2)CCS3)c1` was tested. Which survival did it give?
The survival was inactive: 85%.

Which survival does the source give for `CCOC(=O)c1cccc(NC(=O)C2COc3ccc(OC)cc3C2)c1` (configuration not stated) here?
Its survival is inactive: 66%.

Which survival does the source give for `Cc1ccc(CCNC(=O)C2CC(=O)N(CCc3ccc(C)cc3)C2)cc1` (configuration not stated) here?
Its survival is inactive: 75%.

For `CC1CCCCN1C(=O)C1COc2ccccc2O1` (configuration not stated), which survival is on record?
Its survival is inactive: 105%.
